In test [1] the target is T1, human Her2 expressed on the cell surface of tumor cells (SK-Br3, NCI-N87, KPL-4) (human, UniProt P04626).
T1 construct: also called ErbB2
The test is described as follows: flow cytometry on SK-Br3 cells, PE anti-human IgG secondary. Background: Flow cytometry measures light scatter and fluorescence of single cells or particles in a stream.

For test [2], the target named is human 4-1BB expressed on cells (Jurkat-hu4-1BB-NFκB-luc2 reporter cells; human T cells in PBMC) (human, UniProt Q07011 24-255). The test is described as follows: cell-based or functional assay.
Chain of UniProt Q07011 (Q07011 24-255): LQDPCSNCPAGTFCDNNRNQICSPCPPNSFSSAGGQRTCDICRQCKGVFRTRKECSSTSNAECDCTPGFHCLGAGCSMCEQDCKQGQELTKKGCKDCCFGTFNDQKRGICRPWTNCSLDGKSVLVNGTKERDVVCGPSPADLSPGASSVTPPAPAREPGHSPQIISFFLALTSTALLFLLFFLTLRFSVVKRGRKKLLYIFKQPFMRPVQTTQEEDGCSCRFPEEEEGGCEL
Test [3] has as its target T1, human Her2 expressed on the cell …. The test is described as follows: flow cytometry on KPL-4 cells, PE anti-human IgG secondary.
For test [4] the target is unchanged. The test is described as follows: flow cytometry on NCI-N87 cells, PE anti-human IgG secondary.

B1: Her2(aff-PER)-4-1BBL (monovalent Her2(aff-PER) split trimeric 4-1BB ligand Fc (kih) fusion antigen binding molecule containing CH1-CL crossover and charged … (Fc fusion)
heavy: EVQLVESGGGLVQPGGSLRLSCAASGFTFNDYTMDWVRQAPGKGLEWVADVNPNSGGSIVNRRFKGRFTLSVDRSKNTLYLQMNSLRAEDTAVYYCARNLGPFFYFDYWGQGTLVTVSSASTKGPSVFPLAPSSKSTSGGTAALGCLVKDYFPEPVTVSWNSGALTSGVHTFPAVLQSSGLYSLSSVVTVPSSSLGTQTYICNVNHKPSNTKVDKKVEPKSCDKTHTCPPCPAPEAAGGPSVFLFPPKPKDTLMISRTPEVTCVVVDVSHEDPEVKFNWYVDGVEVHNAKTKPREEQYNSTYRVVSVLTVLHQDWLNGKEYKCKVSNKALGAPIEKTISKAKGQPREPQVCTLPPSRDELTKNQVSLSCAVKGFYPSDIAVEWESNGQPENNYKTTPPVLDSDGSFFLVSKLTVDKSRWQQGNVFSCSVMHEALHNHYTQKSLSLSP
light: DIQMTQSPSSLSASVGDRVTITCKASQDVSTAVAWYQQKPGKAPKLLIYSASFRYTGVPSRFSGSRSGTDFTLTISSLQPEDFATYYCQQHYTTPPTFGQGTKVEIKRTVAAPSVFIFPPSDEQLKSGTASVVCLLNNFYPREAKVQWKVDNALQSGNSQESVTEQDSKDSTYSLSSTLTLSKADYEKHKVYACEVTHQGLSSPVTKSFNRGEC
chain 1: REGPELSPDDPAGLLDLRQGMFAQLVAQNVLLIDGPLSWYSDPGLAGVSLTGGLSYKEDTKELVVAKAGVYYVFFQLELRRVVAGEGSGSVSLALHLQPLRSAAGAAALALTVDLPPASSEARNSAFGFQGRLLHLSAGQRLGVHLHTEARARHAWQLTQGATVLGLFRVTPEIPAGLGGGGSGGGGSREGPELSPDDPAGLLDLRQGMFAQLVAQNVLLIDGPLSWYSDPGLAGVSLTGGLSYKEDTKELVVAKAGVYYVFFQLELRRVVAGEGSGSVSLALHLQPLRSAAGAAALALTVDLPPASSEARNSAFGFQGRLLHLSAGQRLGVHLHTEARARHAWQLTQGATVLGLFRVTPEIPAGLGGGGSGGGGSRTVAAPSVFIFPPSDRKLKSGTASVVCLLNNFYPREAKVQWKVDNALQSGNSQESVTEQDSKDSTYSLSSTLTLSKADYEKHKVYACEVTHQGLSSPVTKSFNRGE[here human IgG1 Fc with changes without letters]
chain 2: REGPELSPDDPAGLLDLRQGMFAQLVAQNVLLIDGPLSWYSDPGLAGVSLTGGLSYKEDTKELVVAKAGVYYVFFQLELRRVVAGEGSGSVSLALHLQPLRSAAGAAALALTVDLPPASSEARNSAFGFQGRLLHLSAGQRLGVHLHTEARARHAWQLTQGATVLGLFRVTPEIPAGLGGGGSGGGGSASTKGPSVFPLAPSSKSTSGGTAALGCLVEDYFPEPVTVSWNSGALTSGVHTFPAVLQSSGLYSLSSVVTVPSSSLGTQTYICNVNHKPSNTKVDEKVEPKSC
notes: Human IgG1 Fc knob-into-hole with P329G, L234A, L235A
B1: the concentration for a half-maximal effect (EC50) (commonly the midpoint of the concentration-response curve) is 7.3 nM in test [1], 0.35 nM in test [3] and 4.3 nM in test [4]. The “EC50 of NFκB-activation-induced Luciferase activity, Jurkat-hu4-1BB-NFκB-luc2 reporter cells, with NCI-N87 cells” value in test [2] came out at 0.05 nM. Moreover, in test [2], the “EC50 of NFκB-activation-induced Luciferase activity, Jurkat-hu4-1BB-NFκB-luc2 reporter cells, with SK-Br3 cells” value was determined as 0.03 nM.

Source of the values: patent US20210024610A1 (Hoffmann-La Roche, published 2021).
